This is one part of the list. Single values are uncertain, as repeats are few or missing.
What follows are compounds tested on WM115 (assay: cell count relative to DMSO control; melanoma cells; higher = more viable cells). Conditions: library dose: standard library concentration; 72 h.
`C[C@@H](Oc1cc(-c2cnn(C3CCNCC3)c2)cnc1N)c1c(Cl)ccc(F)c1Cl` [Crizotinib] + O=S(=O)(c1ccccc1)N(CC(F)(F)F)c1ccc(C(O)(C(F)(F)F)C(F)(F)F)cc1 [T0901317] (first compound 1 µM, partner dose 7 µM) gave a cell count of 43.1%.
In the case of `CN1CCN(c2ccc3nc(-c4c(N)c5c(F)cccc5[nH]c4=O)[nH]c3c2)CC1` [Dovitinib] + O=C(O)C(=O)Nc1sc2c(c1C(=O)O)CCNC2 [TCS401] (first compound 0.5 µM, partner dose 8.33333 µM), the cell count is reported as 65.2%.
In the case of `CS(=O)(=O)CCNCc1ccc(-c2ccc3ncnc(Nc4ccc(OCc5cccc(F)c5)c(Cl)c4)c3c2)o1` [lapatinib] + N#Cc1c(O)c2c(-c3ccc(-c4ccccc4O)cc3)csc2[nH]c1=O [A769662] (first compound 4 µM, partner dose 10 µM), the cell count is reported as 88.6%.
With `CS(=O)(=O)CCNCc1ccc(-c2ccc3ncnc(Nc4ccc(OCc5cccc(F)c5)c(Cl)c4)c3c2)o1` [lapatinib] + O=C(O)C(=O)Nc1sc2c(c1C(=O)O)CCNC2 [TCS401] (first compound 4 µM, partner dose 8.33333 µM) the cell count was 96.7%.
For `CN1CCN(c2ccc3nc(-c4c(N)c5c(F)cccc5[nH]c4=O)[nH]c3c2)CC1` [Dovitinib] + N#Cc1c(O)c2c(-c3ccc(-c4ccccc4O)cc3)csc2[nH]c1=O [A769662] (first compound 0.5 µM, partner dose 10 µM), the cell count was 60.8%.
In the case of `C[C@@H](Oc1cc(-c2cnn(C3CCNCC3)c2)cnc1N)c1c(Cl)ccc(F)c1Cl` [Crizotinib] + O=C(Nc1ccccc1)c1cc([N+](=O)[O-])ccc1Cl [GW9662] (first compound 1 µM, partner dose 10 µM), the cell count is reported as 63.1%.

Each compound was assayed on WM1716 in the same assay as above. Conditions: library dose: standard library concentration; 72 h.
`CS(=O)(=O)CCNCc1ccc(-c2ccc3ncnc(Nc4ccc(OCc5cccc(F)c5)c(Cl)c4)c3c2)o1` [lapatinib] + COc1cc2ncnc(Nc3ccc(Oc4ccccc4)cc3)c2cc1OC [SrcI1] (first compound 4 µM, partner dose 10 µM) was tested, and the cell count was 71.8%.
Compound `CNC(=O)c1cc(Oc2ccc(NC(=O)Nc3ccc(Cl)c(C(F)(F)F)c3)cc2)ccn1` [sorafenib] + COc1ccc2c(c1)CCC1C2CCC2(C)C(NCCCCCCN3C(=O)C=CC3=O)CCC12 [U73122] (first compound 2 µM, partner dose 2 µM) has a cell count of 82.9%.
`CNC(=O)c1cc(Oc2ccc(NC(=O)Nc3ccc(Cl)c(C(F)(F)F)c3)cc2)ccn1` [sorafenib] + Cc1cc([N+](=O)[O-])ccc1NS(=O)(=O)c1cc(Cl)ccc1Cl [FH535] (first compound 2 µM, partner dose 5 µM) showed a cell count of 39%.
`CN1CCN(c2ccc3nc(-c4c(N)c5c(F)cccc5[nH]c4=O)[nH]c3c2)CC1` [Dovitinib] + CCc1ccc(CCOc2ccc(CC3SC(=O)NC3=O)cc2)nc1 [pioglitazone] (first compound 0.5 µM, partner dose 10 µM) showed a cell count of 74%.
For `C=CCNC1=C2C[C@@H](C)C[C@H](OC)[C@H](O)[C@@H](C)/C=C(\C)[C@H](OC(N)=O)[C@@H](OC)/C=C\C=C(/C)C(=O)NC(=CC1=O)C2=O` [Tanespimycin] + N#Cc1c(O)c2c(-c3ccc(-c4ccccc4O)cc3)csc2[nH]c1=O [A769662] (first compound 0.01 µM, partner dose 10 µM), the cell count was 81.1%.
In the case of `C[C@@H](Oc1cc(-c2cnn(C3CCNCC3)c2)cnc1N)c1c(Cl)ccc(F)c1Cl` [Crizotinib] + Oc1nc(-c2ccc(C(F)(F)F)cc2)nc2c1CSCC2 [XAV939] (first compound 1 µM, partner dose 10 µM), the cell count is reported as 62.8%.
For `CS(=O)(=O)CCNCc1ccc(-c2ccc3ncnc(Nc4ccc(OCc5cccc(F)c5)c(Cl)c4)c3c2)o1` [lapatinib] + O=c1cc(-c2cccc3c2Sc2ccccc2S3)oc(N2CCOCC2)c1 [KU55933] (first compound 4 µM, partner dose 5 µM), the cell count was 71.5%.
Work on `C=CCNC1=C2C[C@@H](C)C[C@H](OC)[C@H](O)[C@@H](C)/C=C(\C)[C@H](OC(N)=O)[C@@H](OC)/C=C\C=C(/C)C(=O)NC(=CC1=O)C2=O` [Tanespimycin] + CCN(CC)CCCCNc1ncc2cc(-c3cc(OC)cc(OC)c3)c(NC(=O)NC(C)(C)C)nc2n1 [PD173074] (first compound 0.01 µM, partner dose 0.5 µM) yielded a cell count of 96.2%.
Work on `CS(=O)(=O)CCNCc1ccc(-c2ccc3ncnc(Nc4ccc(OCc5cccc(F)c5)c(Cl)c4)c3c2)o1` [lapatinib] + CCc1ccc(CCOc2ccc(CC3SC(=O)NC3=O)cc2)nc1 [pioglitazone] (first compound 4 µM, partner dose 10 µM) yielded a cell count of 83.4%.
Compound `CN1CCN(c2ccc3nc(-c4c(N)c5c(F)cccc5[nH]c4=O)[nH]c3c2)CC1` [Dovitinib] + COc1cc(N2CCC(N3CCN(C)CC3)CC2)ccc1Nc1ncc(Cl)c(Nc2ccccc2S(=O)(=O)C(C)C)n1 [NVP-TAE684] (first compound 0.5 µM, partner dose 0.4 µM) has a cell count of 67.2%.
`CS(=O)(=O)CCNCc1ccc(-c2ccc3ncnc(Nc4ccc(OCc5cccc(F)c5)c(Cl)c4)c3c2)o1` [lapatinib] + COc1ccc2c(c1)CCC1C2CCC2(C)C(NCCCCCCN3C(=O)C=CC3=O)CCC12 [U73122] (first compound 4 µM, partner dose 2 µM) was tested, and the cell count was 68.1%.
In the case of `CNC(=O)c1cc(Oc2ccc(NC(=O)Nc3ccc(Cl)c(C(F)(F)F)c3)cc2)ccn1` [sorafenib] + CCN(CC)CCCCNc1ncc2cc(-c3cc(OC)cc(OC)c3)c(NC(=O)NC(C)(C)C)nc2n1 [PD173074] (first compound 2 µM, partner dose 0.5 µM), the cell count is reported as 95.9%.
For `C=CCNC1=C2C[C@@H](C)C[C@H](OC)[C@H](O)[C@@H](C)/C=C(\C)[C@H](OC(N)=O)[C@@H](OC)/C=C\C=C(/C)C(=O)NC(=CC1=O)C2=O` [Tanespimycin] + CCCCCCCCCCCC1=C(O)C(=O)C=C(O)C1=O [Embelin] (first compound 0.01 µM, partner dose 6 µM), the cell count was 55.1%.
`C=CCNC1=C2C[C@@H](C)C[C@H](OC)[C@H](O)[C@@H](C)/C=C(\C)[C@H](OC(N)=O)[C@@H](OC)/C=C\C=C(/C)C(=O)NC(=CC1=O)C2=O` [Tanespimycin] + COc1ccc2c(c1)CCC1C2CCC2(C)C(NCCCCCCN3C(=O)C=CC3=O)CCC12 [U73122] (first compound 0.01 µM, partner dose 2 µM) was tested, and the cell count was 85%.
`CNC(=O)c1cc(Oc2ccc(NC(=O)Nc3ccc(Cl)c(C(F)(F)F)c3)cc2)ccn1` [sorafenib] + O=C1NC(=O)/C(=C/c2ccc(-c3ccc(F)cc3O)o2)S1 [AS252424] (first compound 2 µM, partner dose 5 µM) was tested, and the cell count was 142%.
`CN1CCN(c2ccc3nc(-c4c(N)c5c(F)cccc5[nH]c4=O)[nH]c3c2)CC1` [Dovitinib] + Oc1nc(-c2ccc(C(F)(F)F)cc2)nc2c1CSCC2 [XAV939] (first compound 0.5 µM, partner dose 10 µM) was tested, and the cell count was 65.6%.
In the case of `CS(=O)(=O)CCNCc1ccc(-c2ccc3ncnc(Nc4ccc(OCc5cccc(F)c5)c(Cl)c4)c3c2)o1` [lapatinib] + CCCCCCCCCCCC1=C(O)C(=O)C=C(O)C1=O [Embelin] (first compound 4 µM, partner dose 6 µM), the cell count is reported as 67.3%.
`CN1CCN(c2ccc3nc(-c4c(N)c5c(F)cccc5[nH]c4=O)[nH]c3c2)CC1` [Dovitinib] + COc1ccc(-c2ccc3c(N4CCOCC4)nc(N4C[C@@H](C)O[C@@H](C)C4)nc3n2)cc1CO [KU0063794] (first compound 0.5 µM, partner dose 0.1 µM) was tested, and the cell count was 94%.
With `C=CCNC1=C2C[C@@H](C)C[C@H](OC)[C@H](O)[C@@H](C)/C=C(\C)[C@H](OC(N)=O)[C@@H](OC)/C=C\C=C(/C)C(=O)NC(=CC1=O)C2=O` [Tanespimycin] + COc1ccc(-c2ccc3c(N4CCOCC4)nc(N4C[C@@H](C)O[C@@H](C)C4)nc3n2)cc1CO [KU0063794] (first compound 0.01 µM, partner dose 0.1 µM) the cell count was 84.3%.
`CN1CCN(c2ccc3nc(-c4c(N)c5c(F)cccc5[nH]c4=O)[nH]c3c2)CC1` [Dovitinib] + COc1cc2ncnc(Nc3ccc(Oc4ccccc4)cc3)c2cc1OC [SrcI1] (first compound 0.5 µM, partner dose 10 µM) gave a cell count of 66.3%.
Work on `C=CCNC1=C2C[C@@H](C)C[C@H](OC)[C@H](O)[C@@H](C)/C=C(\C)[C@H](OC(N)=O)[C@@H](OC)/C=C\C=C(/C)C(=O)NC(=CC1=O)C2=O` [Tanespimycin] + O=c1cc(-c2cccc3c2Sc2ccccc2S3)oc(N2CCOCC2)c1 [KU55933] (first compound 0.01 µM, partner dose 5 µM) yielded a cell count of 84.9%.
Work on `C=CCNC1=C2C[C@@H](C)C[C@H](OC)[C@H](O)[C@@H](C)/C=C(\C)[C@H](OC(N)=O)[C@@H](OC)/C=C\C=C(/C)C(=O)NC(=CC1=O)C2=O` [Tanespimycin] + COc1ccc(COc2ccc(Cc3cnc(N)nc3N)cc2OC)cc1 [GW2580] (first compound 0.01 µM, partner dose 5 µM) yielded a cell count of 90.3%.
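Also: cells treated in 1,536-well plates, then fixed and DAPI-stained, with nuclei counted from automated high-throughput microscope images.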
